Measured values: PMC12136788
The other results are listed elsewhere or left out.

T1: UNK ZnF1-3 (human, UniProt Q9C0B0 31-174)
T1 sequence: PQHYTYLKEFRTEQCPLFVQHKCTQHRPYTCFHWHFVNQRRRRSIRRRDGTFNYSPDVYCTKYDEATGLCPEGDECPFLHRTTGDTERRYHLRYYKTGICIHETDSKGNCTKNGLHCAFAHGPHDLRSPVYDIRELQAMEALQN

B1: chr11:134117569:134117570:+_ENSG00000151502_ENST00000281187|hu_hu|FALSE|FALSE (ssRNA)
RNA: GGGAGUUCUACAGUCCGACGAUCAGAAACAUGUAAACACUGCAGCUGCUUAAUUACAAGUUGCACUGCUUGAUUUAGUACCUAUGCACUCCCAGGUUUGGGGACCUUAAGAGAGGGGGACAGGAGCCUCCCCUCACUUUCACACAACAGAGGAUUGAGCAUCA
B2: chr12:16048344:16048345:+_ENSG00000023734_ENST00000419869|hu_hu|hu_hu_hu_mus_True|18_98 (ssRNA)
RNA: GGGAGUUCUACAGUCCGACGAUCAGAUCGUCCAUAAGUUAUAACCAAAAUCUCUCCUUCAGGAAUAUACUCCAUGCUGCUAACAGACAUAUUAAAAUUCAGAGAUUUCACUUCUGUCAUAGUAGCAUGAUCCCAGAGCCGAACCAACAGAGGAUUGAGCAUCA
B3: chr3:148802587:148802588:-_ENSG00000071794_ENST00000310053|hu_mus|hu_hu_hu_mus_False|98_98 (ssRNA)
RNA: GGGAGUUCUACAGUCCGACGAUCUCCAACAACUUGUCCUCUCAAACUUCCAAAUAAAACCAAAUCUUGCUCUUCAUCACUCGUUAGGAAGUCAUCUGGAGGAAUAAUGUCUUGGAAUUCAAAAUGUGGCAAGAAAGUUGAGUACAACAGAGGAUUGAGCAUCA
B4: chr22:46712247:46712248:+_ENSG00000075218_ENST00000454366|hu_hu|motif|central (ssRNA)
RNA: GGGAGUUCUACAGUCCGACGAUCAGUAGGCAUAACCUUUGUCUUGGAAUUUAGACAGGAAUCUCGCCGUCUGAUACUUCGGGUCUUAUUCAAUUGAGAAGAUUCUGACCAAGCGCAACUGGAGUUCAGCCACUGGCCGCCACCCAACAGAGGAUUGAGCAUCA
B5: chr7:150710151:150710152:-_ENSMUSG00000059119_ENSMUST00000072727|mus_mus|motif|central (ssRNA)
RNA: GGGAGUUCUACAGUCCGACGAUCGACAGCCCGUGGCACGAUGCGCUCACGAAAAAAGUGCCCAAUUUCAAAGUCAGAGGCGGAGGUGAACUCGGAAUCUUCAUCCAGAGAUUCUCCAUCUCCAGAGGCUUUCAGGGGGCUGAACAACAGAGGAUUGAGCAUCA
B6: chr16:13130331:13130332:+_ENSMUSG00000022545_ENSMUST00000023206|mus_hu|FALSE|FALSE (ssRNA)
RNA: GGGAGUUCUACAGUCCGACGAUCCUUCCUAAAUUUCAUCCAGACUUCUUCAGCUUUGCUAUCCUUCUCAAAGGUUUUCCUGUAGAGCCUCAAUAAGAAGGCCUCCGCUCCAAGAGUGAUAUAGUCUCUCAGCUGGGAACAUGUCAACAGAGGAUUGAGCAUCA
B7: chr7:44244176:44244177:+_ENSG00000106636_ENST00000223369|hu_mus|hu_hu_hu_mus_False|58_108 (ssRNA)
RNA: GGGAGUUCUACAGUCCGACGAUCACUAUCAUUCCGGACGUAGACAUGGCAAAGAUACUCUUGUUCUUUGACAGAAGCUCUAGUGCCUUUCCCCGAGCGUUCCACAAUCAGUUGACUUGUAAAGGUCAUGAAUUCCUGCACACUCAACAGAGGAUUGAGCAUCA
B8: chr2:216981417:216981418:+_ENSG00000079246_ENST00000392132|hu_mus|motif|central (ssRNA)
RNA: GGGAGUUCUACAGUCCGACGAUCCUGAUACUGGUCCUUGCCAGCAAGGGCAUUAUCAGUGCCAUCUGUGCCAUAGAGGACGGACGCAAUCUCAUCUUUGCUCUCCGAAAAUACCUGUCGUUGGACAAACAUAGUCAUCACUUUCAACAGAGGAUUGAGCAUCA
B9: chr18:25531195:25531196:-_ENSG00000170558_ENST00000399380|hu_hu|FALSE|FALSE (ssRNA)
RNA: GGGAGUUCUACAGUCCGACGAUCUUUCUUUCCUUUCCUUUUUUUUUUUUUUUGGUACAAAUUAUGUAAAACAUUUGUGCUAAGAACUUUUCUCCCUCCCCAAACCAAAAAGAAAAUAAAAAAUAAAAAAAUUAAAAAAAUUAACAACAGAGGAUUGAGCAUCA
B10: 81593598_81593718_1741_CDS_ENSMUSG00000032705_ENSMUST00000038185|mouse|control|control (ssRNA)
RNA: GGGAGUUCUACAGUCCGACGAUCCAGCAGGCGUAGGCCCUCCUCUGAGCCAAUGGGAGCCUGGAACUCCUUGGCCAGCUGUUGCUUCAGAUGGUUGUCAUAGUAGUUAGAGAUGGCAUGGCAGGAGGUGCAGAGCAACAGCACCAACAGAGGAUUGAGCAUCA
B11: chr1:84034342:84034343:-_ENSMUSG00000045658_ENSMUST00000168574|mus_hu|FALSE|FALSE (ssRNA)
RNA: GGGAGUUCUACAGUCCGACGAUCGCCUGAGCGUGGUGAAAACUGGCAUGGAGCUCUCCCACAGAGAGGCAUUGGGAAAUGAGAAAAAUAAGAGAGCCUAGAACCUUCCUCCCCAUCCACACUCCCACCCUCCUCACAGUCACACAACAGAGGAUUGAGCAUCA
B12: chr1:60039268:60039269:+_ENSMUSG00000041040_ENSMUST00000036540|mus_hu|FALSE|FALSE (ssRNA)
RNA: GGGAGUUCUACAGUCCGACGAUCUGACCACAUGGUGAAAUGUGUACAGGAGUAGUGAAGAAAACAGCAGUUAUACAAAUAUUUCACCCAAAGCACAAACUUUUGACAUCAAAAACAUAAAUCACAUAAUGUACGAAUAUUGCUCAACAGAGGAUUGAGCAUCA
B13: chr11:102150864:102150865:-_ENSMUSG00000059995_ENSMUST00000137387|mus_mus|FALSE|FALSE (ssRNA)
RNA: GGGAGUUCUACAGUCCGACGAUCAUUAGUACAGAACCCCCCCACACACAGACACAUGAUAGGAUACAGGGUGGACGACACCUAGCCAGGGUGGGGAGGAUGGGAAUUGAAACCCACACAGCCUGCUGUUAGAGGGAGGGAGUGCAACAGAGGAUUGAGCAUCA
B14: 98527785_98528331_2553_CDS_ENSG00000196367_ENST00000456197|human|control|control (ssRNA)
RNA: GGGAGUUCUACAGUCCGACGAUCUUGCAUACCACGCCUGUUCAUAACAACAUGCACACAGGCGCUCCACGAUGUAAGAAAACAGGGGCAGCUGGCAGGCCCUCUCCUUGGAGCCCAGGAUGAUACUUGCAACAUCAAAUAUCACAACAGAGGAUUGAGCAUCA

The binders below were run against T1, UNK ZnF1-3 (assay: nsRBNS (natural sequence RNA bind-n-seq); RBNS binding buffer (assumed for nsRBNS): 25 mM Tris pH 7.5, 150 mM KCl, 3 mM MgCl2, 0.01% Triton X-100, 500 ug/ml BSA, 20 U/ml SUPERase-In, 4 C; UNK is unkempt and MSI1 is Musashi-1; names of the RNAs are library labels; protein concentration not given here; high values mean tight binding).
B1 gave a binding signal of 0.528 enrichment R. For B2, the binding signal was 0.914 enrichment R. For B3, the binding signal was 1.03 enrichment R. For B4, the binding signal was 1.31 enrichment R. For B5, the binding signal was 1.25 enrichment R. In the case of B6, the binding signal is reported as 0.867 enrichment R. B7 gave a binding signal of 0.565 enrichment R. Work on B8 yielded a binding signal of 0.629 enrichment R. For B9, the binding signal was 1.19 enrichment R. Binder B10 has a binding signal of 0.952 enrichment R. Work on B11 yielded a binding signal of 1.73 enrichment R. Binder B12 has a binding signal of 1.62 enrichment R. B13 showed a binding signal of 1.39 enrichment R. In the case of B14, the binding signal is reported as 0.978 enrichment R.
